# Assay results published in the supplement of paper PMC12217912.
# The other results are listed elsewhere or left out. Sequences were assembled here from the parent chain. Values near 0.05 are background.
# B1: TEV protease; numbered along this chain (parent)
# chain: MGESLFKGPRDYNPISSSICHLTNESDGHTTSLYGIGFGPFIITNKHLFRRNNGTLVVQSLHGVFKVKDTTTLQQHLVDGRDMIIIRMPKDFPPFPQKLKFREPQREERICLVTTNFQTKSMSSMVSDTSCTFPSGDGIFWKHWIQTKDGQCGSPLVSTRDGFIVGIHSASNFTNTNNYFTSVPKNFMELLTNQEAQQWVSGWRLNADSVLWGGHKVFMVKPEEPFQPVKEATQL
# Variants of: B1
# Assay: raw area under fraction-flipped curve 0-4 h after induction (AUC4h, not background-subtracted), DNA-recorder readout of cleavage of the substrate (dimensionless); higher = more cleavage of the substrate by the protease variant
# Conditions: temperature: 34 °C; time window: 0-4 h after rhamnose induction
# Protocol: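 In vivo DNA recorder in E. coli TOP10(DE3) ΔrhaA at 34 °C. Each TEVp single-site mutant (parent TEVp 0) is paired with a single-site variant of the 7-mer TEVs (canonical ENLYFQ|S). The substrate sits between flexible linkers in a Bxb1-sfGFP-TEVs-SsrA fusion, so cleavage stabilises Bxb1 and speeds flipping of a recombination array, read by NGS. The value is the raw area under the fraction-flipped curve over 0-4 h after rhamnose induction (AUC4h), with ≥20 reads per time point. It is not background-subtracted; inactive controls average about 0.047.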
# 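Further: Bxb1 expression induced with 0.2% (w/v) L-rhamnose at OD600 near 0.5, cultures sampled hourly, flipped fraction per protease–substrate barcode pair counted by paired-end Illumina sequencing.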
variant,measurement,value
MGESLFKGPRDYNPISSSICHLTNESDGHTTSLYGIGFGPFIITNKHLFRRNNGTLVVQSLHGVFKVKDTTTLQQHLVDGRDMIIIRMPKDFPPFPQKLKFREPQREERICLVTTNFQTKSMSSMVSDTSCTFPSGDGIFWKHWIQTKDGQCGSPLVSTRDGFIVGIHSASCFTNTNNYFTSVPKNFMELLTNQEAQQWVSGWRLNADSVLWGGHKVFMVKPEEPFQPVKEATQL [N172C],area with substrate ENLAFQS,0.0628
same,area with substrate ENLFFQS,0.0719
same,area with substrate ENLHFQS,0.0586
same,area with substrate ENLNFQS,0.0758
same,area with substrate ENLSFQS,0.0399
MGESLFKGPRDYNPISSSICHLTNESDGHTTSLYGIGFGPFIITNKHLFRRNNGTLVVQSLHGVFKVKDTTTLQQHLVDGRDMIIIRMPKDFPPFPQKLKFREPQREERICLVTTNFQTKSMSSMVSDTSCTFPSGDGIFWKHWIQTKDGQCGSPLVSTRDGFIVGIHSASNFTNTNNYFTSVPKNFMELLTNQEAQFWVSGWRLNADSVLWGGHKVFMVKPEEPFQPVKEATQL [Q198F],area with substrate ENLAFQS,0.0708
same,area with substrate ENLDFQS,0.0612
same,area with substrate ENLEFQS,0.0625
same,area with substrate ENLFFQS,0.107
same,area with substrate ENLGFQS,0.0675
same,area with substrate ENLHFQS,0.0747
same,area with substrate ENLIFQS,0.0828
same,area with substrate ENLKFQS,0.0764
same,area with substrate ENLLFQS,0.0636
same,area with substrate ENLMFQS,0.0718
same,area with substrate ENLNFQS,0.0648
same,area with substrate ENLPFQS,0.0633
same,area with substrate ENLQFQS,0.0706
same,area with substrate ENLRFQS,0.0838
same,area with substrate ENLSFQS,0.054
same,area with substrate ENLVFQS,0.0717
MGESLFKGPRDYNPISSSICHLTNESDGHTTSLYGIGFGPFIITNKHLFRRNNGTLVVQSLHGVFKVKDTTTLQQHLVDGRDMIIIRMPKDFPPFPQKLKFREPQREERICLVTTNFQTKSMSSMVSDTSCTFPSGDGIFWKHWIQTKDGQCGSPLVSTRDGFIVGIHSASNFTNTNNYFTSVPKNFMELLTNQEAQQWVSFWRLNADSVLWGGHKVFMVKPEEPFQPVKEATQL [G202F],area with substrate ENLAFQS,0.0585
same,area with substrate ENLCFQS,0.0686
same,area with substrate ENLDFQS,0.0746
same,area with substrate ENLEFQS,0.0694
same,area with substrate ENLFFQS,0.0577
same,area with substrate ENLKFQS,0.0594
same,area with substrate ENLLFQS,0.052
same,area with substrate ENLNFQS,0.0442
same,area with substrate ENLPFQS,0.036
same,area with substrate ENLQFQS,0.0744
same,area with substrate ENLRFQS,0.0727
same,area with substrate ENLSFQS,0.0597
same,area with substrate ENLTFQS,0.074
same,area with substrate ENLVFQS,0.0606
same,area with substrate ENLWFQS,0.0664
MGESLFKGPRDYNPISSSICHLTNESDGHTTSLYGIGFGPFIITNKHLFRRNNGTLVVQSLHGVFKVKDTTTLQQHLVDGRDMIIIRMPKDFPPFPQKLKFREPQREERICLVTTNFQTKSMSSMVSDTSCTFPSGDGIFWKHWIQTKDGQCGSPLVSTRDGFIVGIHSASNFTNTNNYFTSVPKNFMELLKNQEAQQWVSGWRLNADSVLWGGHKVFMVKPEEPFQPVKEATQL [T192K],area with substrate ENLAFQS,0.0744
same,area with substrate ENLCFQS,0.0804
same,area with substrate ENLDFQS,0.0572
same,area with substrate ENLEFQS,0.0726
same,area with substrate ENLFFQS,0.0913
same,area with substrate ENLHFQS,0.0719
same,area with substrate ENLIFQS,0.0757
same,area with substrate ENLKFQS,0.0717
same,area with substrate ENLLFQS,0.0971
same,area with substrate ENLNFQS,0.0588
same,area with substrate ENLRFQS,0.0713
same,area with substrate ENLSFQS,0.0514
same,area with substrate ENLTFQS,0.0834
same,area with substrate ENLVFQS,0.085
MGESLFKGPRDYNPISSSICHLTNESDGHTTSLYGIGFGPFIITNKHLFRRNNGTLVVQSLHGVFKVKDTTTLQQHLVDGRDMIIIRMPKDFPPFPQKLKFREPQREERICLVTTNFQTKSMSSMVSDTSCTFPSGDGIFWKHWIQTKDGQCGSPLVSTRDGFIVGIHSASNFTNTNNYFTSVPKNFMELLLNQEAQQWVSGWRLNADSVLWGGHKVFMVKPEEPFQPVKEATQL [T192L],area with substrate ENLAFQS,0.0638
same,area with substrate ENLDFQS,0.083
same,area with substrate ENLEFQS,0.0479
same,area with substrate ENLFFQS,0.083
same,area with substrate ENLGFQS,0.0536
same,area with substrate ENLHFQS,0.0685
same,area with substrate ENLKFQS,0.068
same,area with substrate ENLLFQS,0.0642
same,area with substrate ENLMFQS,0.0823
same,area with substrate ENLNFQS,0.0824
same,area with substrate ENLPFQS,0.0561
same,area with substrate ENLQFQS,0.0546
same,area with substrate ENLSFQS,0.0447
MGESLFKGPRDYNPISSSICHLTNESDGHTTSLYGIGFGPFIITNKHLFRRNNGTLVVQSLHGVFKVKDTTTLQQHLVDGRDMIIIRMPKDFPPFPQKLKFREPQREERICLVTTNFQTKSMSSMVSDTSCTFPSGDGIFWKHWIQTKDGQCGSPLVSTRDGFIVGIHSASNFTNTNNYFTSVPKNFMELLNNQEAQQWVSGWRLNADSVLWGGHKVFMVKPEEPFQPVKEATQL [T192N],area with substrate ENLAFQS,0.076
same,area with substrate ENLCFQS,0.0658
same,area with substrate ENLDFQS,0.0487
same,area with substrate ENLEFQS,0.0782
same,area with substrate ENLFFQS,0.0299
same,area with substrate ENLGFQS,0.0703
same,area with substrate ENLHFQS,0.0448
same,area with substrate ENLIFQS,0.0955
same,area with substrate ENLKFQS,0.0835
same,area with substrate ENLLFQS,0.0738
same,area with substrate ENLMFQS,0.0757
same,area with substrate ENLNFQS,0.0734
same,area with substrate ENLPFQS,0.0503
same,area with substrate ENLQFQS,0.0771
same,area with substrate ENLSFQS,0.0583
same,area with substrate ENLWFQS,0.0616
MGESLFKGPRDYNPISSSICHLTNESDGHTTSLYGIGFGPFIITNKHLFRRNNGTLVVQSLHGVFKVKDTTTLQQHLVDGRDMIIIRMPKDFPPFPQKLKFREPQREERICLVTTNFQTKSMSSMVSDTSCTFPSGDGIFWKHWIQTKDGQCGSPLVSTRDGFIVGIHSASNFTNTNNYFTSKPKNFMELLTNQEAQQWVSGWRLNADSVLWGGHKVFMVKPEEPFQPVKEATQL [V183K],area with substrate ENLAFQS,0.0563
same,area with substrate ENLCFQS,0.0537
same,area with substrate ENLDFQS,0.0638
same,area with substrate ENLFFQS,0.0564
same,area with substrate ENLHFQS,0.0538
same,area with substrate ENLIFQS,0.0545
same,area with substrate ENLKFQS,0.0364
same,area with substrate ENLLFQS,0.0558
same,area with substrate ENLNFQS,0.0586
same,area with substrate ENLPFQS,0.0539
same,area with substrate ENLQFQS,0.0452
same,area with substrate ENLRFQS,0.0525
same,area with substrate ENLTFQS,0.0515
same,area with substrate ENLVFQS,0.05
same,area with substrate ENLWFQS,0.0651
MGESLFKGPRDYNPISSSICHLTNESDGHTTSLYGIGFGPFIITNKHLFRRNNGTLVVQSLHGVFKVKDTTTLQQHLVDGRDMIIIRMPKDFPPFPQKLKFREPQREERICLVTTNFQTKSMSSMVSDTSCTFPSGDGIFWKHWIQTKDGQCGSPLVSTRDGFIVGIHSASNFTNHNNYFTSVPKNFMELLTNQEAQQWVSGWRLNADSVLWGGHKVFMVKPEEPFQPVKEATQL [T176H],area with substrate ENLAFQS,0.0648
same,area with substrate ENLCFQS,0.056
same,area with substrate ENLDFQS,0.0681
same,area with substrate ENLFFQS,0.0626
same,area with substrate ENLHFQS,0.0664
same,area with substrate ENLIFQS,0.0595
same,area with substrate ENLKFQS,0.0812
same,area with substrate ENLLFQS,0.0446
same,area with substrate ENLPFQS,0.041
same,area with substrate ENLRFQS,0.0734
MGESLFKGPRDYNPISSSICHLTNESDGHTTSLYGIGFGPFIITNKHLFRRNNGTLVVQSLHGVFKVKDTTTLQQHLVDGRDMIIIRMPKDFPPFPQKLKFREPQREERICLVTTNFQTKSMSSMVSDTSCTFPSGDGIFWKHWIQTKDGQCGSPLVSTRDGFIVGIHSASNFTNGNNYFTSVPKNFMELLTNQEAQQWVSGWRLNADSVLWGGHKVFMVKPEEPFQPVKEATQL [T176G],area with substrate ENLAFQS,0.0689
same,area with substrate ENLCFQS,0.0717
same,area with substrate ENLDFQS,0.0702
same,area with substrate ENLEFQS,0.0484
same,area with substrate ENLFFQS,0.0643
same,area with substrate ENLGFQS,0.0684
same,area with substrate ENLIFQS,0.0634
same,area with substrate ENLKFQS,0.0593
same,area with substrate ENLLFQS,0.056
same,area with substrate ENLNFQS,0.0644
same,area with substrate ENLRFQS,0.0485
